Screen size: about 410,000 compounds; about 6,400 (1.6%) were called active. The inconclusive results got no clear call from the source; some entries with a clear call stand among them for comparison. Calls come from the whole dose curve; as a rule, active = well fitted inhibition curve with a large enough effect; inconclusive = small, poorly fitted or top-dose-only effect; inactive = no such curve, though single readings can be large or run the other way. Potencies of inconclusive entries are left out as doubtful fits.
These compounds were tested against Glucagon-like peptide 1 receptor (Homo sapiens) (UniProt P43220) (assay: qHTS of GLP-1 Receptor Inverse Agonists (Inhibition Mode)). Conditions: HEK293 GLP-1R CRE-luciferase, luminescence, 24 h, GLP-1R form is constitutively active; activity change, negative = inhibition: at 38.3 µM (top of the series) unless noted.
Sequence of UniProt P43220 (P43220 whole entry, looked up): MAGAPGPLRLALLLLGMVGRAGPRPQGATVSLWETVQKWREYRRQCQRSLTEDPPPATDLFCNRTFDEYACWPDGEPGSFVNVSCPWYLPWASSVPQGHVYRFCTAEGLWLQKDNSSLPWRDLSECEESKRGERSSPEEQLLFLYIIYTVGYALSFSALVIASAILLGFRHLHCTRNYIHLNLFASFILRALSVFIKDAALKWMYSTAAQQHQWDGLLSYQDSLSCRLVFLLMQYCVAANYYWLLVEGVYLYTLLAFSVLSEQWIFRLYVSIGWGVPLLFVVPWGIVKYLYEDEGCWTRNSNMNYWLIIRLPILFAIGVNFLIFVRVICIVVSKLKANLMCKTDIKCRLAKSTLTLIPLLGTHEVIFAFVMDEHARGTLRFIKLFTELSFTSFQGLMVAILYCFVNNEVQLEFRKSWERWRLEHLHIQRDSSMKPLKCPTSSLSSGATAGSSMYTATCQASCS
Outline: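 Inverse agonism was detected as reduced cAMP-driven luciferase luminescence after 24 h compound treatment. The cells were HEK293 clones expressing constitutively active human GLP-1R with the reporter. Reporter-only and GPR119 cell lines served as counterscreen controls.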
In the case of C[C@@H]1CC=C[C@H]2[C@H]1C(=O)N(Cc1ccccc1)[C@H]2c1ccoc1, the Potency is reported as inconclusive [inhibitor, single point]. CCOC(=O)N1CCN(C(c2ccnc3ccccc23)c2nnnn2-c2ccc3c(c2)OCCO3)CC1 (stereo not drawn) was tested, and the Potency was inconclusive [inhibitor, partial curve, poor fit]. For CCN(CC)CCCN(C(=O)c1ccco1)c1nc(-c2ccc(C)cc2)cs1, the Potency was inconclusive [inhibitor, partial curve, poor fit]. In the case of CCC1=NN(C(=O)C(=O)Nc2ccc(Br)cc2)C(O)(C(F)(F)F)C1 (stereo not drawn), the Potency is reported as inconclusive [inhibitor, partial curve, poor fit]. For COCCNC(=O)CSC1=N/C(=C/c2ccc(Cl)c(Cl)c2)C(=O)N1c1ccccc1F, the Potency was inconclusive [inhibitor, single point]. In the case of Cc1ccccc1N(C(=O)CNC(=O)c1ccco1)C(C(=O)NC1CCCCC1)c1ccncc1 (stereo not drawn), the “activity change, negative = inhibition” value is reported as inactive: -19.9%. With CC(=O)Nc1cccc(C(=O)OCC(=O)c2ccc3c(c2)OCO3)c1 the Potency was inconclusive [inhibitor, single point]. CC1(C)CC(=O)C(C(C#Cc2ccccc2)C2=C(O)CC(C)(C)CC2=O)=C(O)C1 was tested, and the Potency was inconclusive [inhibitor, partial curve, poor fit]. Cc1nn2c(C)c(C(=O)Nc3ccccc3)cnc2c1-c1ccccc1 was tested, and the Potency was inconclusive [inhibitor, partial curve, poor fit]. CN(C)C(=S)Nc1cccc(C(F)(F)F)c1 was tested, and the “activity change, negative = inhibition” value was inactive: -7.82%. For CCOC(=O)CSc1nc2c(c(-c3ccc(C)o3)c1C#N)CCCC2, the “activity change, negative = inhibition” value was inactive: -2.86%. In the case of COc1cccc(-c2c(-c3cc(OC)cc(OC)c3)n(C)c3ccc(-c4cccc5[nH]ccc45)cc23)c1, the Potency is reported as inconclusive [inhibitor, partial curve, poor fit]. CCCC(=O)Nc1nnc(CCc2ccccc2)s1 was tested, and the “activity change, negative = inhibition” value was inactive: 5.71%. In the case of Cc1ccc(S(=O)(=O)N2CCC(=O)N(CCOC(=O)Nc3cc(C)cc(C)c3)CC2)cc1, the Potency is reported as inconclusive [inhibitor, single point]. With Cc1cccc(NS(=O)(=O)c2ccc(C3CCCCC3)cc2)c1 the Potency was inconclusive [inhibitor, single point]. With CCOc1cc(/C=C/C(=O)N(CC)CC(=O)NCc2cccs2)cc(Cl)c1OC the Potency was inconclusive [inhibitor, partial curve, poor fit]. O=c1cc(-c2ccccc2)oc2ccc(O)cc12 was tested, and the “activity change, negative = inhibition” value was inactive: 84.6%. For Cc1ccc(S(=O)(=O)N(CCC(=O)NCc2ccccc2F)c2ccccc2)cc1, the Potency was inconclusive [inhibitor, single point]. For CCC(=O)N1CCc2cc(Br)cc(S(=O)(=O)CCC(=O)NCc3cccc(OC)c3)c21, the “activity change, negative = inhibition” value was inactive: -21.9%. With CC1CCCC(C)N1C(=O)COc1ccc([N+](=O)[O-])cc1Cl (stereo not drawn) the Potency was inconclusive [inhibitor, single point]. For COc1ccc(OCC(=O)NNc2c3ccccc3nc3ccccc23)cc1, the Potency was inconclusive [inhibitor, single point]. For CCOC(=O)c1ccc(CN(Cc2ccccc2C)S(=O)(=O)c2ccc(F)c(C)c2)cc1, the Potency was inconclusive [inhibitor, partial curve, poor fit]. In the case of COCCNC(=S)NN=C1CCC(c2ccccc2)CC1 (stereo not drawn), the Potency is reported as inconclusive [inhibitor, partial curve, poor fit]. With CCOc1ccccc1NC(=O)N1CCC(n2nnc3cc(C)ccc32)CC1 the Potency was inconclusive [inhibitor, full curve]. In the case of O=C(CCCOc1ccc(Br)cc1)Nc1ccc(S(=O)(=O)N2CCOCC2)cc1, the Potency is reported as inconclusive [inhibitor, single point]. In the case of Cc1cc(C)nc(Nc2ccc(O)cc2)n1, the “activity change, negative = inhibition” value is reported as inactive: 2.08%. For Cc1cc(C)cc(-n2c(SCC(N)=O)nc3c([nH]c4ccccc43)c2=O)c1, the Potency was inconclusive [inhibitor, single point]. For O=C(C1=C[C@H](c2ccc(Br)cc2)C[C@H](OCCCCO)O1)N1CCN(Cc2ccc3c(c2)OCO3)CC1, the Potency was inconclusive [inhibitor, single point]. With O=C(NC(=O)c1ccccc1)Nc1ccccc1O the Potency was inconclusive [inhibitor, single point]. With COc1ccc(C)cc1NC(=O)C(Cc1ccccc1)NS(=O)(=O)c1cccs1 (stereo not drawn) the Potency was inconclusive [inhibitor, partial curve, poor fit]. With Cc1cccc2c(C(=O)N3CCN(C(=O)c4ccco4)CC3)cc(-c3cccc(Br)c3)nc12 the Potency was inconclusive [inhibitor, single point]. O=C(COC(=O)c1ccc(O)cc1)NC(c1ccccc1)c1ccccc1 was tested, and the Potency was inconclusive [inhibitor, partial curve]. Cc1ccc2cc(CN(CCCN3CCOCC3)C(=O)NC3CCCCC3)c(=O)[nH]c2c1C was tested, and the Potency was inconclusive [inhibitor, single point]. For Cc1cccc(N2CCN(C(=O)CCCOc3ccccc3)CC2)c1C, the Potency was inconclusive [inhibitor, single point]. For OC(CNCC(c1ccc(Cl)cc1Cl)c1c[nH]c2ccccc12)c1ccccc1 (stereo not drawn), the Potency was inconclusive [inhibitor, partial curve, poor fit]. In the case of COC(=O)c1ccccc1NC(=O)CCS(=O)(=O)c1ccc(Br)s1, the “activity change, negative = inhibition” value is reported as inactive: -8.8%. In the case of c1ccc(-c2nc3ccccc3o2)nc1, the “activity change, negative = inhibition” value is reported as inactive: 7.52%. For COc1ccc(C2/C=C\CN(CC(C)(C)C)CC(=O)N2Cc2ccc(F)cc2)cc1 (stereo not drawn), the Potency was inconclusive [inhibitor, single point]. With Cc1cc(OCC(=O)Nc2cccc(S(=O)(=O)N3CCCCC3)c2)ccc1Cl the Potency was inconclusive [inhibitor, partial curve, poor fit]. Cc1onc(-c2ccccc2)c1C(=O)OCC(=O)c1ccccc1 was tested, and the Potency was inconclusive [inhibitor, single point]. In the case of CCOc1ccccc1NC(=O)CN(c1ccc(Cl)cc1)S(C)(=O)=O, the Potency is reported as inconclusive [inhibitor, partial curve, poor fit]. With CCCc1cc(C(=O)N2CCN(c3ccc(C(F)(F)F)cn3)CC2)sc1C the Potency was inconclusive [inhibitor, partial curve, poor fit]. For COc1ccccc1Nc1nn2c(=O)c3ccc(C(=O)NCCC4=CCCCC4)cc3nc2s1, the Potency was inconclusive [inhibitor, full curve, poor fit]. COc1cccc(CNC(=O)c2cnc(N3CCCCC3)c3ccccc23)c1 was tested, and the “activity change, negative = inhibition” value was inactive: -19.6%. COc1cc(-c2cc(C(=O)N(C)Cc3ccccc3)c3ccccc3n2)cc(OC)c1OC was tested, and the Potency was inconclusive [inhibitor, single point]. In the case of c1ccc(-c2csc(NNC3=NCCCCC3)n2)cc1, the Potency is reported as inconclusive [inhibitor, single point]. For CN(C(=O)CSc1ncnc2sc3c(c12)CCCC3)C1CCS(=O)(=O)C1 (stereo not drawn), the Potency was inconclusive [inhibitor, single point]. In the case of CCCSCCCNC(=O)c1ccc2c(c1)sc1nc(-c3ccc(OCC)cc3)cn12, the “activity change, negative = inhibition” value is reported as inactive: 14.3%. For Cc1ccccc1OCc1nc(-c2ccc(NC(=O)c3cccs3)cc2)no1, the Potency was inconclusive [inhibitor, full curve]. With CC(C)c1ccc(C(=O)Nc2ccc(CN3CCOCC3)cc2)cc1 the Potency was inconclusive [inhibitor, full curve, poor fit]. In the case of COc1cc2c(cc1OC)C1(CCCC1)CNC2c1ccc([N+](=O)[O-])cc1 (stereo not drawn), the Potency is reported as inconclusive [inhibitor, single point]. CC[n+]1c(C)sc2c(C)cc(C)cc21 was tested, and the Potency was inconclusive [inhibitor, partial curve]. Cc1ccc(CCC(=O)Nc2ccc(C)c(C)c2)o1 was tested, and the Potency was inconclusive [inhibitor, partial curve]. In the case of CCCSC1=N/C(=C\c2ccc3c(c2)OCO3)C(=O)S1, the Potency is reported as inconclusive [inhibitor, partial curve]. With O=C(Nc1cnn(Cc2ccc(Cl)cc2)c1)c1ccc([N+](=O)[O-])cc1 the Potency was inconclusive [inhibitor, partial curve, poor fit]. With COc1ccc(Nc2nc3ccccc3s2)cc1 the Potency was inconclusive [inhibitor, single point]. With O=S(=O)(NC(=S)NC1CCCCC1)c1ccc(Cl)cc1 the “activity change, negative = inhibition” value was inactive: -23.7%. With O=C(Cc1ccc(F)cc1)N1CCC(CC2CC(c3cccc(Br)c3)=NO2)(C(=O)NCC2CCCCC2)CC1 (stereo not drawn) the Potency was inconclusive [inhibitor, partial curve, poor fit]. With CCN(CC)CCNC(=O)Cn1cnc2sc(C)c(S(=O)(=O)N3CCOCC3)c2c1=O the “activity change, negative = inhibition” value was inactive: -21.3%. Cc1ccc(NS(=O)(=O)c2ccc3[nH]c4c(c3c2)CCCC4)cc1N(C)C was tested, and the Potency was inconclusive [inhibitor, partial curve, poor fit]. For O=C(NCc1ccccc1CN1CCCC1)c1cccc(S(=O)(=O)Nc2ccc(F)cc2)c1, the Potency was inconclusive [inhibitor, single point]. For O=C1C(=O)N(C2CCN(C(=O)c3ccccc3Cl)CC2)CCN1Cc1ccc(F)cc1, the “activity change, negative = inhibition” value was inactive: -9.39%. In the case of COc1ccc(C2=NNC(=Nc3cc(S(=O)(=O)N(C)C)ccc3C)SC2)c(OC)c1, the Potency is reported as inconclusive [inhibitor, single point].

Reference: PubChem BioAssay AID624417 (National Center for Advancing Translational Sciences (NCATS), 2012)
% is set by controls: 0 for no effect and ±100 for the full control effect; potency is the fitted concentration of half-maximal effect; tags give direction and shape of the fitted curve.
Note: nearly all actives have a fitted effect of over 55% in size.
